The chains are these.
B1: TEV protease; numbered along this chain (parent)
chain: MGESLFKGPRDYNPISSSICHLTNESDGHTTSLYGIGFGPFIITNKHLFRRNNGTLVVQSLHGVFKVKDTTTLQQHLVDGRDMIIIRMPKDFPPFPQKLKFREPQREERICLVTTNFQTKSMSSMVSDTSCTFPSGDGIFWKHWIQTKDGQCGSPLVSTRDGFIVGIHSASNFTNTNNYFTSVPKNFMELLTNQEAQQWVSGWRLNADSVLWGGHKVFMVKPEEPFQPVKEATQL

The assay covers variants of B1. As to the kind of experiment: raw area under fraction-flipped curve 0-4 h after induction (AUC4h, not background-subtracted), DNA-recorder readout of cleavage of the substrate (dimensionless); higher = more cleavage of the substrate by the protease variant. To be noted: temperature: 34 °C; time window: 0-4 h after rhamnose induction. The method, then:
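In vivo DNA recorder in E. coli TOP10(DE3) ΔrhaA at 34 °C. Each TEVp single-site mutant (parent TEVp 0) is paired with a single-site variant of the 7-mer TEVs (canonical ENLYFQ|S). The substrate sits between flexible linkers in a Bxb1-sfGFP-TEVs-SsrA fusion, so cleavage stabilises Bxb1 and speeds flipping of a recombination array, read by NGS. The value is the raw area under the fraction-flipped curve over 0-4 h after rhamnose induction (AUC4h), with ≥20 reads per time point. It is not background-subtracted; inactive controls average about 0.047.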

Results on nine variants are retold here after the supplement of paper PMC12217912.

Some of the results follow. The full chains were built here from the parent and the listed change. Inactive controls read about 0.05.
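Note: Bxb1 expression induced with 0.2% (w/v) L-rhamnose at OD600 near 0.5, cultures sampled hourly, flipped fraction per protease–substrate barcode pair counted by paired-end Illumina sequencing.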

As for MGESLFKGPRDYNPISSSICHLTNESDGHTTSLYGIGFGPFIITNKHLFRRNNGTLVVQSLHGVFKVKDTTTLQQHLVDGRDMIIIRMPKDFPPFPQKLKFREPQREERICLVTTNFQTKSMSSMVSDTSCTFPSGDGIFWKHWIQTKDGQCGSPLVSTRDGFIVGIHSASNFTNTNNYFTSVPKNFMELLTNQEAQQWVSGWRLNADSVLWGGHKAFMVKPEEPFQPVKEATQL [V217A], the “area with substrate ENLAFQS” value came out at 0.0648, the “area with substrate ENLDFQS” value turned out to be 0.0557, the “area with substrate ENLEFQS” value was determined as 0.0537 and the “area with substrate ENLFFQS” value is 0.0708. For the same variant, the “area with substrate ENLGFQS” value came to 0.0262, the “area with substrate ENLIFQS” value was 0.0779, the “area with substrate ENLLFQS” value was 0.0718 and the “area with substrate ENLNFQS” value turned out to be 0.068. Further, the “area with substrate ENLPFQS” value came to 0.0735, the “area with substrate ENLSFQS” value amounted to 0.0685, the “area with substrate ENLVFQS” value was 0.0619 and the “area with substrate ENLWFQS” value was 0.0923.

For MGESLFKGPRDYNPISSSICHLTNESDGHTTSLYGIGFGPFIITNKHLFRRNNGTLVVQSLHGVFKVKDTTTLQQHLVDGRDMIIIRMPKDFPPFPQKLKFREPQREERICLVTTNFQTKSMSSMVSDTSCTFPSGDGIFWKHWIQTKDGQCGSPLVSTRDGFIVGIHSASNFTNTNNYFTSVPKNFMELLTNQEAGQWVSGWRLNADSVLWGGHKVFMVKPEEPFQPVKEATQL [Q197G], the “area with substrate ENLAFQS” value worked out at 0.0624, the “area with substrate ENLCFQS” value turned out to be 0.0645, the “area with substrate ENLDFQS” value turned out to be 0.0682 and the “area with substrate ENLEFQS” value amounted to 0.0577. Moreover, the “area with substrate ENLNFQS” value was found to be 0.0387, the “area with substrate ENLPFQS” value came to 0.0644, the “area with substrate ENLQFQS” value was 0.0627 and the “area with substrate ENLRFQS” value is 0.0728. The “area with substrate ENLSFQS” value was found to be 0.0517 and the “area with substrate ENLWFQS” value is 0.0651.

As to MGESLFKGPRDYNPISSSICHLTNESDGHTTSLYGIGFGPFIITNKHLFRRNNGTLVVQSLHGVFKVKDTTTLQQHLVDGRDMIIIRMPKDFPPFPQKLKFREPQREERICLVTTNFQTKSMSSMVSDTSCTFPSGDGIFWKHWIQTKDGQCGSPLVSTRDGFIVGIHSASNFTNTNNYFTSVPKNFMELLTNQEAKQWVSGWRLNADSVLWGGHKVFMVKPEEPFQPVKEATQL [Q197K], the “area with substrate ENLAFQS” value is 0.0659, the “area with substrate ENLCFQS” value was found to be 0.0475, the “area with substrate ENLDFQS” value is 0.0776 and the “area with substrate ENLFFQS” value stood at 0.0715. Moreover, the “area with substrate ENLGFQS” value was 0.085, the “area with substrate ENLHFQS” value came to 0.0582, the “area with substrate ENLIFQS” value was found to be 0.0905 and the “area with substrate ENLKFQS” value stood at 0.0793. The “area with substrate ENLLFQS” value amounted to 0.0658, the “area with substrate ENLMFQS” value stood at 0.0787, the “area with substrate ENLNFQS” value worked out at 0.0656 and the “area with substrate ENLPFQS” value is 0.0529. The “area with substrate ENLQFQS” value amounted to 0.0603, the “area with substrate ENLRFQS” value was determined as 0.0637, the “area with substrate ENLSFQS” value was 0.0587 and the “area with substrate ENLVFQS” value came out at 0.0906. In addition, the “area with substrate ENLWFQS” value turned out to be 0.0694.

Turning to MGESLFKGPRDYNPISSSICHLTNESDGHTTSLYGIGFGPFIITNKHLFRRNNGTLVVQSLHGVFKVKDTTTLQQHLVDGRDMIIIRMPKDFPPFPQKLKFREPQREERICLVTTNFQTKSMSSMVSDTSCTFPSGDGIFWKHWIQTKDGQCGSPLVSTRDGFIVGIHSASNFTNTNNYFTSVPKNFMELLTNQEAQQWVSAWRLNADSVLWGGHKVFMVKPEEPFQPVKEATQL [G202A], the “area with substrate ENLAFQS” value worked out at 0.059, the “area with substrate ENLCFQS” value amounted to 0.0747, the “area with substrate ENLDFQS” value came to 0.0778 and the “area with substrate ENLEFQS” value amounted to 0.0618. For the same variant, the “area with substrate ENLFFQS” value came to 0.0601, the “area with substrate ENLHFQS” value worked out at 0.0642, the “area with substrate ENLIFQS” value is 0.0736 and the “area with substrate ENLKFQS” value came out at 0.0691. For the same variant, the “area with substrate ENLLFQS” value turned out to be 0.0697, the “area with substrate ENLMFQS” value was determined as 0.0679, the “area with substrate ENLNFQS” value came out at 0.0717 and the “area with substrate ENLPFQS” value was determined as 0.0474. In addition, the “area with substrate ENLQFQS” value came out at 0.0645, the “area with substrate ENLRFQS” value amounted to 0.0645, the “area with substrate ENLSFQS” value was found to be 0.0578 and the “area with substrate ENLVFQS” value turned out to be 0.0681.

As for MGESLFKGPRDYNPISSSICHLTNESDGHTTSLYGIGFGPFIITNKHLFRRNNGTLVVQSLHGVFKVKDTTTLQQHLVDGRDMIIIRMPKDFPPFPQKLKFREPQREERICLVTTNFQTKSMSSMVSDTSCTFPSGDGIFWKHWIQTKDGQCGSPLVSTRDGFIVGIHSASNFTNTNNYFTSVPKMFMELLTNQEAQQWVSGWRLNADSVLWGGHKVFMVKPEEPFQPVKEATQL [N186M], the “area with substrate ENLAFQS” value was found to be 0.0731, the “area with substrate ENLCFQS” value was 0.0718, the “area with substrate ENLDFQS” value was 0.0639 and the “area with substrate ENLEFQS” value was 0.0722. Further, the “area with substrate ENLFFQS” value was 0.0868, the “area with substrate ENLHFQS” value was 0.0731, the “area with substrate ENLIFQS” value stood at 0.101 and the “area with substrate ENLKFQS” value came out at 0.0761. The “area with substrate ENLLFQS” value stood at 0.0527, the “area with substrate ENLMFQS” value stood at 0.0597, the “area with substrate ENLNFQS” value is 0.0725 and the “area with substrate ENLQFQS” value is 0.069. Besides, the “area with substrate ENLSFQS” value was determined as 0.069, the “area with substrate ENLVFQS” value was 0.0864 and the “area with substrate ENLWFQS” value was determined as 0.0787.

On to MGESLFKGPRDYNPISSSICHLTNESDGHTTSLYGIGFGPFIITNKHLFRRNNGTLVVQSLHGVFKVKDTTTLQQHLVDGRDMIIIRMPKDFPPFPQKLKFREPQREERICLVTTNFQTKSMSSMVSDTSCTFPSGDGIFWKHWIQTKDGQCGSPLVSTRDGFIVGIHSASNFTNTNNYFTSVPKLFMELLTNQEAQQWVSGWRLNADSVLWGGHKVFMVKPEEPFQPVKEATQL [N186L], for which the “area with substrate ENLAFQS” value came out at 0.0393, the “area with substrate ENLCFQS” value was 0.0404, the “area with substrate ENLDFQS” value turned out to be 0.0772 and the “area with substrate ENLEFQS” value worked out at 0.052. In addition, the “area with substrate ENLFFQS” value was determined as 0.0854, the “area with substrate ENLGFQS” value is 0.0576, the “area with substrate ENLHFQS” value was 0.0804 and the “area with substrate ENLIFQS” value came to 0.0804. Moreover, the “area with substrate ENLKFQS” value is 0.1, the “area with substrate ENLMFQS” value came out at 0.0712, the “area with substrate ENLNFQS” value was 0.067 and the “area with substrate ENLPFQS” value was found to be 0.0574. The “area with substrate ENLQFQS” value is 0.0828, the “area with substrate ENLSFQS” value was 0.0569 and the “area with substrate ENLVFQS” value was 0.0893.

As to MGESLFKGPRDYNPISSSICHLTNESDGHTTSLYGIGFGPFIITNKHLFRRNNGTLVVQSLHGVFKVKDTTTLQQHLVDGRDMIIIRMPKDFPPFPQKLKFREPQREERICLVTTNFQTKSMSSMVSDTSCTFPSGDGIFWKHWIQTKDGQCGSPLVSTRDGFIVGIHSASNFTNTNNYFTSVPKNFMELLTNQEAQQWVSGWRLNADSVLWGGWKVFMVKPEEPFQPVKEATQL [H215W], the “area with substrate ENLAFQS” value came to 0.0561, the “area with substrate ENLCFQS” value amounted to 0.0687, the “area with substrate ENLDFQS” value came to 0.0671 and the “area with substrate ENLEFQS” value turned out to be 0.052. Also, the “area with substrate ENLFFQS” value was 0.0655, the “area with substrate ENLGFQS” value was 0.065, the “area with substrate ENLHFQS” value stood at 0.0662 and the “area with substrate ENLKFQS” value was 0.0666. The “area with substrate ENLLFQS” value amounted to 0.0541, the “area with substrate ENLMFQS” value was 0.0044, the “area with substrate ENLNFQS” value is 0.0566 and the “area with substrate ENLRFQS” value was determined as 0.0733. In addition, the “area with substrate ENLSFQS” value was 0.0545, the “area with substrate ENLVFQS” value is 0.0645 and the “area with substrate ENLWFQS” value amounted to 0.0914.

On to MGESLFKGPRDYNPISSSICHLTNESDGHTTSLYGIGFGPFIITNKHLFRRNNGTLVVQSLHGVFKVKDTTTLQQHLVDGRDMIIIRMPKDFPPFPQKLKFREPQREERICLVTTNFQTKSMSSMVSDTSCTFPSGDGIFWKHWIQTKDGQCGSPLVSTRDGFIVGIHSASNFTNTNNYFTSVPKNFMELLTNQEAQQWVSGWRLNADSVLWGGDKVFMVKPEEPFQPVKEATQL [H215D], for which the “area with substrate ENLAFQS” value came to 0.0544, the “area with substrate ENLCFQS” value came out at 0.0542, the “area with substrate ENLDFQS” value was 0.0599 and the “area with substrate ENLEFQS” value worked out at 0.0733. The “area with substrate ENLFFQS” value was determined as 0.0596, the “area with substrate ENLGFQS” value turned out to be 0.105, the “area with substrate ENLHFQS” value was 0.0687 and the “area with substrate ENLIFQS” value was found to be 0.0533. For the same variant, the “area with substrate ENLKFQS” value stood at 0.0641, the “area with substrate ENLLFQS” value is 0.086, the “area with substrate ENLNFQS” value is 0.0597 and the “area with substrate ENLPFQS” value turned out to be 0.073. In addition, the “area with substrate ENLQFQS” value was determined as 0.0641, the “area with substrate ENLRFQS” value turned out to be 0.062, the “area with substrate ENLSFQS” value stood at 0.065 and the “area with substrate ENLVFQS” value was determined as 0.0565.

In the case of MGESLFKGPRDYNPISSSICHLTNESDGHTTSLYGIGFGPFIITNKHLFRRNNGTLVVQSLHGVFKVKDTTTLQQHLVDGRDMIIIRMPKDFPPFPQKLKFREPQREERICLVTTNFQTKSMSSMVSDTSCTFPSGDGIFWKHWIQTKDGQCGSPLVSTRDGFIVGIHSASNFTNTNNYFTSVPKNFMELLTNQEAQQWVSGWRLGADSVLWGGHKVFMVKPEEPFQPVKEATQL [N206G], the “area with substrate ENLAFQS” value came to 0.102, the “area with substrate ENLCFQS” value was 0.086, the “area with substrate ENLDFQS” value worked out at 0.0731 and the “area with substrate ENLEFQS” value is 0.0669. In addition, the “area with substrate ENLFFQS” value was found to be 0.0823, the “area with substrate ENLGFQS” value was found to be 0.0715, the “area with substrate ENLHFQS” value amounted to 0.08 and the “area with substrate ENLIFQS” value is 0.103. The “area with substrate ENLKFQS” value came out at 0.0757, the “area with substrate ENLLFQS” value came out at 0.0777, the “area with substrate ENLMFQS” value came out at 0.0675 and the “area with substrate ENLNFQS” value was determined as 0.053. The “area with substrate ENLPFQS” value stood at 0.0485, the “area with substrate ENLQFQS” value was determined as 0.0673, the “area with substrate ENLSFQS” value was 0.0631 and the “area with substrate ENLWFQS” value amounted to 0.0786.
